Laboratory results taken from the supplement of paper PMC3334620.
The full ranking holds about 33,000 sequences; the median of “E-score (-0.5 to 0.5)” is about -0.056, and the highest 2% start at about 0.38. This is one part of the list.

target: Stb4 (UniProt P50104); test: PBM E-score (8-mer binding enrichment) (E-score (-0.5 to 0.5)); higher = stronger / more preferred TF binding; most listed sequences are background and not binding sites; details: protein concentration: 200 nM; construct: GST-DNA-binding domain
Description: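 Universal 'all 10-mer' protein binding microarrays (Agilent AMADID 015681) probed with GST-tagged S. cerevisiae TFs (full-length or DBD) made by in vitro transcription/translation (PURExpress), about 100-200 nM. Bound TF was detected with fluorescent anti-GST. Each ungapped 8-mer (which stands for itself and its reverse complement) is scored by the PBM enrichment score (E-score), a modified Wilcoxon-Mann-Whitney statistic from -0.5 to +0.5, computed with the Universal PBM Analysis Suite. Scale: above 0.35 generally sequence-specific binding.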

| Sequence | PBM E-score |
| --- | --- |
| ATATTGTC | 0.123 |
| CAGACACG | 0.111 |
| GCCCAACC | -0.0407 |
| AACGTGTG | -0.286 |
| ATGCTAAG | -0.0968 |
| AAGAGCCT | -0.313 |
| ACGCTCAC | -0.0276 |
| GTCAGATA | -0.156 |
| CTGATTGC | -0.03 |
| GATACAGC | 0.175 |
| TCTTAAGA | -0.264 |
| CTCGGAGA | 0.406 |
| AAATCGGG | 0.317 |
| ATATCTAA | -0.198 |
| AGTTAATA | 0.073 |
| AGACAGCT | -0.309 |
| CTCACCGC | -0.257 |
| GCACCCGC | 0.285 |
| CGAATCGC | -0.0319 |
| AGGGTGAT | -0.0632 |
| CGCAAAAC | -0.00182 |
| ACTGCACT | -0.162 |

| Sequence | PBM E-score |
| --- | --- |
| CACGAATG | -0.254 |
| CTTGAGAC | -0.034 |
| CATGACCG | -0.104 |
| AGACCTCT | -0.146 |
| ACGCCTTC | -5e-05 |
| ATAGGTAA | -0.158 |
| CATCGTCG | -0.0404 |
| ACTGCACA | -0.102 |
| ATGCCCAT | -0.255 |
| CGAAGACC | 0.0393 |
| CTTTGAGC | -0.151 |
| AGTCGCCA | -0.166 |
| CTCTTAAG | -0.211 |
| ATCCCCGG | 0.319 |
| ATCCTGCG | -0.117 |
| CATTATTC | 0.0794 |
| TCCTTCCA | -0.102 |
| GGGAAGAA | 0.0883 |
| ATAGGTCG | 0.117 |
| ACACAAGG | -0.281 |
| ACGAGCTG | -0.126 |
| CCATAGGC | -0.0733 |

| Sequence | PBM E-score |
| --- | --- |
| CAAGCGCA | -0.0164 |
| CTTCTGAC | -0.286 |
| ATCACAGG | -0.225 |
| ACATGAAC | -0.0936 |
| TGCTCCAA | -0.154 |
| TCTCGTAA | 0.00218 |
| GTATTCAC | 0.174 |
| AAACGTAC | -0.132 |
| ATGCTACG | -0.0991 |
| CCCAGTCG | 0.0802 |
| ATACGTAG | -0.231 |
| GTTCTGCA | -0.0879 |
| GAGCATAA | 0.175 |
| AAATTTAA | 0.0055 |
| AATTTCTG | -0.127 |
| ACTCAGCC | -0.0292 |
| CCGTGCTA | 0.0858 |
| CTCATAAC | 0.0481 |
| ATGACAAT | -0.0174 |
| ACCGGCGT | 0.0666 |
| ATGAATGC | -0.145 |
| TCGCTACA | -0.322 |

| Sequence | PBM E-score |
| --- | --- |
| CCACCAAC | 0.00817 |
| TAAAGACA | -0.235 |
| GAATGCTC | -0.108 |
| CGCCTCTC | -0.167 |
| CAGGCTGA | -0.0668 |
| AATCTAGT | 0.143 |
| AGGGGGAA | -0.293 |
| ACTTCTTC | -0.026 |
| AAGGTCAC | -0.215 |
| CCCCTCTA | -0.18 |
| CCTGCTGA | -0.163 |
| TCAGAAAA | -0.356 |
| GAGCAAGC | -0.0432 |
| AACTACAG | -0.0338 |
| TACGGTGA | -0.251 |
| CGCCCTCC | 0.0375 |
| AGCGGGCC | 0.0413 |
| GCCAGGGC | -0.132 |
| CTCTGCCC | -0.215 |
| AAGGACTA | -0.209 |
| CTCAGCAG | -0.231 |
| CGTTCACA | -0.0233 |

| Sequence | PBM E-score |
| --- | --- |
| CCGAACAA | 0.425 |
| AAGGTTGA | -0.137 |
| CACCAGGA | -0.0574 |
| CGGATGAC | 0.328 |
| CTCTGAAC | -0.174 |
| CGCATTGA | 0.0657 |
| ATTCAGGG | -0.144 |
| CGTATTAC | 0.0881 |
| GACCCTAA | -0.0535 |
| GAGTTTAA | 0.0814 |
| CGCTTGAC | -0.15 |
| GGCCCTGA | -0.217 |
| TATGTTAA | -0.0728 |
| CGCGACTA | 0.0456 |
| CGCTCTAA | -0.0936 |
| GACGAGAC | -0.0141 |
| AAAAGACT | -0.227 |
| AATGTCAT | 0.0487 |
| TACTTGGA | -0.185 |
| ATACAGCA | -0.0487 |
| CAGCCGGG | 0.237 |
